The full ranking holds about 33,000 sequences; the median of “E-score (-0.5 to 0.5)” is about -0.056, and the highest 2% start at about 0.38. This is one part of the list.
molecular target: Stb4 (UniProt P50104); test: PBM E-score (8-mer binding enrichment) (E-score (-0.5 to 0.5)); higher = stronger / more preferred TF binding; most listed sequences are background and not binding sites; settings: protein concentration: 200 nM; construct: GST-DNA-binding domain
Experimental: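 Universal 'all 10-mer' protein binding microarrays (Agilent AMADID 015681) probed with GST-tagged S. cerevisiae TFs (full-length or DBD) made by in vitro transcription/translation (PURExpress), about 100-200 nM. Bound TF was detected with fluorescent anti-GST. Each ungapped 8-mer (which stands for itself and its reverse complement) is scored by the PBM enrichment score (E-score), a modified Wilcoxon-Mann-Whitney statistic from -0.5 to +0.5, computed with the Universal PBM Analysis Suite. Scale: above 0.35 generally sequence-specific binding.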

Sequence	PBM E-score
CACATGCG	-0.0206
CTCTTAGA	-0.148
AGAAAAAC	0.0789
TCGTCACA	-0.142
ATTACGAG	-0.0498
CCGGTCCC	0.282
GTGAGCCA	-0.259
CAATGGAA	-0.00985
ATAAATAA	0.096
ATAAGTAA	0.0286
CCTCTTCA	-0.228
CCGTGAAA	0.145
CTTTACTA	0.0402
CGGGATCC	0.362
ACGGTTTG	0.0503
AACTTGCA	-0.142
GCCCCTGA	-0.151
CCACTTTC	0.0186
AATCACCA	-0.0406
ACAGGCCC	-0.1
AACTAAAT	-0.115
GTAACGAC	-0.0977
CATTCTTC	-0.0802
TACCAAAA	-0.12
AGATACGA	-0.0774

Sequence	PBM E-score
ATGGGCTG	-0.291
CACTAGCA	-0.366
CGAATGGC	0.0616
TCGGCCAA	0.154
CAGGGACG	-0.237
TCGTGCCA	-0.287
TAGCTCCA	-0.13
CGAACCGA	0.397
AGTGGCGG	0.0057
CAGCCCAA	-0.0393
GGCCACGA	0.032
CCCACTGC	-0.119
CGGATAGC	0.394
TCGCCCGA	0.185
GATTTGAA	-0.0567
CCGTCAAA	0.0747
GAGAGCCC	-0.189
ACAGTCTG	-0.101
GAGCCAGA	-0.0624
GTGGAGGA	-0.111
CTGACTGC	-0.159
GGAAATTA	0.206
AGCTGGTA	-0.177
CTCAGTCA	-0.283
GACACGCC	0.215

Sequence	PBM E-score
TACTCAGA	-0.0115
ACATCGAT	-0.034
ATTAGAGC	-0.123
ACTAAGGA	-0.111
CTCGCGAA	-0.186
GCCTGATA	-0.232
AAAGGAAG	0.0446
GTACCTCA	-0.189
CTAGGCAC	-0.144
AACTCGCT	0.00937
TACGATAA	-0.162
CAAATTTC	-0.0668
AGCTCGCA	-0.108
GACCACTC	0.0629
AGCATCAT	-0.0917
ACATACCG	0.0646
CTGCGCGC	0.0597
GTATTACA	0.028
AACTATCA	0.0771
CGGTGCCA	-0.0951
ACGGCCTA	0.0635
AAAGGTGG	-0.152
TCCGCGCA	0.284
AGATGGCA	-0.0446
ACTCAGAT	-0.212

Sequence	PBM E-score
ACGATTAA	-0.0906
ACCTGAGC	-0.274
AATTACCG	0.283
AACATTCG	0.0901
GTTCAGAA	-0.102
ACAGACCC	0.118
TACCTGAA	-0.133
AACAAGAA	-0.0133
AGTGGATG	-0.152
AAAGCCCG	0.167
GACGCGAC	-0.068
GTTTTGTA	0.0271
CTCTTGAC	-0.107
CTCCCTTC	-0.0453
AACGGGTC	0.156
AGCAAGAT	-0.0547
TCTATTCA	-0.201
AGCGGTCA	-0.0327
GGCTGACA	0.121
CATTCGGC	0.409
CGTACATA	-0.0677
ACGAGAGG	-0.046
TACTTCTA	-0.254
AATACAGA	0.0167
ACCCGACT	0.33

Sequence	PBM E-score
GCGAATCC	-0.0095
AAGCCGAG	0.401
ACGAAGCG	-0.267
CTTGCGCC	-0.117
CAGGTCCA	-0.146
CCGACTAC	0.281
ATCGACGA	-0.00793
CACCACTG	-0.27
AGCGCCCT	-0.0352
AAGAGGCC	0.0161
GTTCGTGA	-0.205
AGTACGTA	-0.192
CAAAGTGG	-0.223
GTGACCGA	0.182
GACCGACC	0.0661
GGTAGACC	0.143
CTCTAATC	-0.0726
CACGAGTC	-0.186
GACCGGAC	0.203
CAGCGGAG	0.03
ACCTTCGC	0.0537
CAACAGCA	-0.113
AATCATAG	-0.00235
ATATTGAA	-0.0305
CAAACGAG	-0.121

Sequence	PBM E-score
CTAGTGAA	-0.124
ATCCCCAC	0.0276
ATGTCTTC	-0.0885
CCAGGGAC	-0.237
ACCCAAAC	0.0138
GCCATTCA	-0.0733
AGCTGCGA	-0.0306
GCTGATGA	-0.157
ATTCTTTG	-0.167
ATTAAGGA	-0.00265
CAAATCCC	0.141
AACAGGCT	-0.216
CACAAGAC	-0.231
CATATCCA	-0.178
CTGTCCGA	0.282
ATGGATCA	-0.156
CCTGTGGC	-0.0365
AAGCCTGG	-0.14
CAGAACAC	-0.0656
TAACTCTA	-0.104
GCGCTAGA	-0.16
TCGCTAGA	-0.16
AAGGTTCA	-0.021
TGGCTTAA	-0.0753
AGCACAGC	-0.0525

Sequence	PBM E-score
AAGAGTAT	-0.137
AGGCCGAC	0.245
TTGGCCAA	-0.299
AGCTGTGG	-0.173
CGCTGTTC	-0.137
CTGTTTGA	-0.128
GACTTCGC	-0.0039
CCCTAGAC	-0.32
AGTCCCTG	-0.233
AATGTAGG	-0.0343
AGTTTTAA	-0.105
AGGCTACG	-0.281
GCGCGAAA	0.052
ACCGAACG	0.345
CCTAAACG	-0.0588
GCTCCCTA	-0.216
GCTCGGAA	0.482
GTAAAAAC	-0.0446
ACACTCTG	-0.238
ATAGCGCG	0.00989
CCGCCACC	0.0636
ACTCTGCG	-0.098

— the supplement of paper PMC3334620
